In ChEMBL document CHEMBL4888484, “Replenishing the malaria drug discovery pipeline: Screening and hit evaluation of the MMV Hit Generation Library 1 (HGL1) against asexual blood stage Plasmodium falciparum ,using a nano luciferase reporter read-out” (2022):
Where “and” joins values, the source holds several entries; their conditions need not be identical. Identical values can stand only once. Among all 150,000 compounds or so, about 540 (0.36%) showed an effect of 50% or more. Some of the results follow.

System: Plasmodium falciparum
Assay: Primary screen in NF54 nanoGlo assay, in single point, at 2uM, 72h; a lower Z score goes with more inhibition
Type: functional, Erythrocyte
Details: timepoint 72 hour

Structure (SMILES) | % Inhibition | Z score | % Inhibition (2 µM)
Cc1ccc(Br)cc1C(=O)[C@H](C#N)C(=O)NC(C)C | -1% | 0.07 | –
CN1CCC(N(CCc2ccccc2)C(=O)c2cccc(O)c2)CC1 | 11% | -1.39 | –
Cc1nc([C@H]2CCCN(C(=O)c3ccc(=O)[nH]c3)C2)cc(N2CCOCC2)n1 | -5% | 0.81 | –
CCc1ccc2c(CC(=O)N[C@H]3CCc4nc(C)cn4C3)coc2c1 | -17% | 1.65 | –
O=C(c1ccc(=O)[nH]c1)N1CCN(Cc2ccccc2)[C@@H]2CS(=O)(=O)C[C@@H]21 | -3% | 0.51 | –
CCC[C@H](C)N1CC2(CCN(C(=O)CCn3ccc(C)n3)CC2)OC1=O | -5% | 0.64 | –
CC(C)(C)c1nc(CS(C)(=O)=O)cs1 | -6% | 0.71 | –
Cc1c(C(=O)NCc2n[nH]c(N)n2)n(C)c2ccc(F)cc12 | 2% | -0.16 | –
Cc1nn2c(N3CCC(Cc4ccccc4)CC3)cc(C(C)(C)C)nc2c1-c1ccccc1 | -4% | 0.58 | –
CCn1nc(COc2ccccc2OC)nc1-c1cccn1C1CC1 | 4% | -0.49 | –
CCNc1ncc(CN2CCC(N3CCc4ccccc4C3)CC2)cn1 | -12% | 1.53 | –
O=C1CCCC[C@@H](C(=O)NCc2ccccc2)N1 | 5% | -0.73 | –
CN1CC(=O)N2CCN(Cc3cc(O)c4cc(F)ccc4n3)C[C@H]2C1=O | -11% | 2.15 | –
CCCO[C@H]1CCCN(c2nc(N)nc(C)c2CCC(=O)O)C1 | -10% | 0.94 | –
CN(Cc1ccccc1)c1ncccc1CNC(=O)[C@H]1CCCNCC1 | 3% | -0.65 | –
O=C(NCc1cc(F)cc(F)c1)c1ccc2ccccc2n1 | 36% | -4.81 | –
CN(Cc1cccs1)C(=O)CN1C(=O)N[C@]2(CCc3ccccc3C2)C1=O | -2% | 0.26 | –
Cc1cccc(NS(=O)(=O)c2ccc(-c3[nH]ncc3C(=O)N3CCOCC3)o2)c1C | -7% | 0.86 | –
CC(N)C1CCCCN1C(=O)c1cc(Oc2ccccc2)ccn1 (stereo not given) | 1% | -0.1 | –
CCCn1ncnc1[C@H](C)NS(=O)(=O)c1cccnc1 | 2% | -0.49 | –
O=C(c1cc(-c2ccco2)n[nH]1)N1CCN(c2ccccc2)CC1 | 13% | -1.62 | –

Structure (SMILES) | % Inhibition | Z score | % Inhibition (2 µM)
Cc1cc(C)c(NC(=O)C(C)S(=O)(=O)CC2CCCO2)c(C)c1 (stereo not given) | -12% | 1.56 | –
CN(Cc1cn(C)nn1)[C@H]1CCCC[C@H]1C(F)(F)F | -7% | 1.3 | –
O=C(c1nc2n(n1)C1(CCCCC1)[C@@H]1CCCC[C@@H]1N2C(=O)C1CCCCC1)N1CCOCC1 | -26% | 2.33 | –
CCn1nc([C@H](O)c2ccccc2)nc1Cc1ccc(O)c(Cl)c1 | 0% | -0.02 | –
CCCCN(CC(N)=O)C(=O)c1ccc(OC)nc1 | 0% | -0.01 | –
Cc1cc(-c2cccc(C(=O)N3CCC[C@H](N)C3)c2)c2cc(F)cc(F)c2n1 | -9% | 1.33 | –
CNC(=O)N1CCC[C@H](CN2CCOCC2)C1 | -11% | 1.96 | –
O=S(=O)(Cc1ccccc1)NC[C@H]1CCCN1c1ccccc1 | -11% | 2.14 | –
CCn1nc(-c2ccco2)nc1C[C@H](C)N1CCOCC1 | -8% | 1.67 | –
CN(C(=O)c1cc(-c2ccc(F)cc2)[nH]n1)c1ccccc1 | 25% | -2.78 | –
C[C@H]1c2cc(Cl)cc(Cl)c2CCN1C(=O)CCc1cccnc1 | -8% | 1.35 | –
COc1c(NC(=O)CNc2ccccc2)c(C)nn1C | -1% | 0.07 | –
CC1(C)CC2(CCCCC2)N2C(=O)[C@@]3(NC(=O)c4ccccc4N3)c3cccc1c32 | 2% | -0.28 | –
Cc1csc(CN2CCn3c(nn(CC(=O)N(C)C)c3=O)C2)n1 | 5% | -0.67 | –
CCc1cnc(NC[C@H]2CCS(=O)(=O)C2)nc1 | -16% | 1.48 | –
O=C(N[C@@H]1CN(Cc2cccc(F)c2F)C[C@H]1CO)c1cccnc1 | -14% | 2.35 | –
Cc1ccc(C(=O)C(=O)NCc2ccc(N3CCNC(=O)C3)cc2)cc1 | -10% | 1.37 | –
Nc1nc(Oc2ccc(Br)cc2)cc(Oc2ccc(Br)cc2)n1 | -6% | 1.21 | –
CCn1c(C)cc(C(=O)N2CCNC(=O)C[C@H]2c2ccccc2)c1C | -2% | 0.28 | –
COc1ccc(OC)c(CN2C(=O)c3cc4c(OC)ccc(OC)c4n3C[C@]2(C(=O)NC2CCCCCC2)c2ccccc2)c1 | 37% | -5.3 | –
Cc1ccc(CN(C)C(=O)[C@@H](O)Cc2ccccc2)o1 | 0% | 0.04 | –

Structure (SMILES) | % Inhibition | Z score | % Inhibition (2 µM)
CO[C@H](CNC(=O)c1nnn(Cc2cc(C)no2)c1C)CC(C)C | 9% | -1.23 | –
Cc1ccc(C2=NN(C(=O)CN3CCOCC3)[C@H](c3cccc(F)c3)C2)cc1 | 3% | -0.5 | –
Cc1nn(CCN2C[C@@H](C(=O)O)CC2=O)c(C)c1Cl | -15% | 2.83 | –
O=C(O)CCN1CCC(c2nc3c(s2)CCCC3)CC1 | 0% | -0.04 | –
O=C(Nc1ccc(C(=O)N2CCOCC2)c(F)c1)c1ccsc1 | -8% | 1.29 | –
CC(=O)Nc1c(-c2ccccc2)c(C)nn1-c1ccc(C(=O)N2CCN(c3ccccc3)CC2)cc1 | -11% | 1.96 | –
Cc1ccc(-c2cc3ncc(C(=O)c4cc(F)ccc4O)cn3n2)cc1 | -4% | 0.4 | –
Cc1cccc(CNC2=NCCNC23CCN(S(=O)(=O)c2cc(C)cc(C)c2)CC3)c1 | -4% | 0.52 | –
CCn1ccnc1-c1nc2cc(S(=O)(=O)NC(C)C)ccc2n1C(C)C | 3% | -0.44 | –
Cc1ccc(S(=O)(=O)N2CCc3c(c(-c4nnc(-c5ccc(F)cc5)o4)nn3C)C2)cc1 | 1% | -0.07 | –
Cc1ccc(NS(=O)(=O)c2ccc(NC(=O)Cc3ccccc3)cc2)cc1C | 34% | -0.88 | –
O=C1CC(C(=O)N2CCCC2c2ccncc2)CN1c1ccccc1 (stereo not given) | -8% | 1.05 | –
CN1CCN(C[C@@H]2CN(C(=O)CCCc3ccccc3)C[C@@H]2CO)CC1 | 0% | -0.01 | –
COc1ccc2cc(NC(=O)CNC(=O)c3cnccn3)cnc2c1 | -5% | 0.64 | –
O=C(COc1ccccc1-n1cnnc1)Nc1n[nH]c(C2CC2)n1 | – | – | 1% and -16%
COc1ccnc(NCc2ccc(N(C)C)c(F)c2)n1 | 6% | -0.67 | –
O=C(NC1(c2noc([C@@H]3CCCO3)n2)CCCCCC1)c1ocnc1C(F)F | 4% | -0.43 | –
CC(=O)N1CCN(C(=O)c2ccc3c(c2)[nH]c(=O)n3C)CC12CCCCC2 | 2% | -0.28 | –
COc1ccc(Cc2nnc(C(=O)NCc3cccnc3)o2)cc1OC | -1% | 0.22 | –
CC1(C)CC(NC(=O)c2ccccc2F)CC(C)(CNC(=O)c2ccccc2F)C1 (stereo not given) | 9% | -1.65 | –
COc1cc(C(=O)N2CCN(C(=O)c3ccco3)CC2)on1 | -11% | 1.51 | –

Structure (SMILES) | % Inhibition | Z score | % Inhibition (2 µM)
Cc1nnc(C(=O)NCCc2c(C)n[nH]c2C)s1 | -8% | 1.11 | –
COC1CCCCC1NC1CCCc2ccccc21 (stereo not given) | -1% | 0.19 | –
Cc1cc(C(=O)Cn2nnc3ccccc3c2=O)c(C)n1-c1ccc2c(c1)OCCO2 | -5% | 0.94 | –
CCCN(CCC)c1nc(-c2ccccc2)nc2c1sc(=S)n2-c1ccccc1 | -2% | 0.28 | –
CN(Cc1cccc(C#N)c1)S(=O)(=O)c1ccc2c(c1)CCO2 | -6% | 1.14 | –
CCn1cc(-c2n[nH]cc2C(=O)N[C@@H]2Cc3ccccc3[C@H]2O)cn1 | -8% | 1.28 | –
CC(C)(C)OC(=O)N1CCN(c2ccc(NCc3cscn3)nc2)CC1 | -7% | 0.88 | –
O=C1Cc2ccc(C(=O)NCC3CCOCC3)cc2N1 | -9% | 0.89 | –
CCc1nc(COC(=O)c2ccccc2-c2nnc(C)o2)cs1 | -12% | 2.17 | –
Cc1nc(N(C)C)nc(N(C)Cc2cc(C3CC3)[nH]n2)c1C | -11% | 1.53 | –
Cc1cc(N2CCCS2(=O)=O)ccc1C(=O)Nc1nnc(CC(C)C)s1 | -8% | 1.39 | –
COc1ccc(Cn2c(C)cc(O)c([C@H](c3ccncc3)N3CCN(c4ccccc4)CC3)c2=O)cc1 | 2% | -0.27 | –
CO[C@@H](CNC(=O)N1CCNC1=O)c1ccco1 | 19% | -2.41 | –
O=C(c1cnn2ccccc12)N1CCC[C@@](O)(C(F)(F)F)C1 | 2% | -0.29 | –
O=C(NCc1ncc[nH]1)c1cc(CN2CCc3ccccc3C2)on1 | 1% | -0.22 | –
CC(C)(C)C(=O)Nc1ccccc1C(=O)NC[C@H]1CCOC1 | -11% | 1.25 | –
C[C@H]1CCCN(C(=O)CCc2nc3ccccc3s2)C1 | -7% | 0.66 | –
c1ccc2c(C3CCN(c4nccn5cnnc45)CC3)ccnc2c1 | -14% | 1.85 | –
CN(C)c1nccnc1N1CCC[C@@](CO)(CC2CC2)C1 | -19% | 1.9 | –
Cc1nccc(OC2CCN(C(=O)NC(c3ccccc3)c3ccccc3)CC2)n1 | 16% | -2.47 | –
